The supplement of paper PMC12217912
Some of the results follow. The full chains were built here from the parent and the listed change. Values near 0.05 are background.

B1: TEV protease; numbered along this chain (parent)
chain: MGESLFKGPRDYNPISSSICHLTNESDGHTTSLYGIGFGPFIITNKHLFRRNNGTLVVQSLHGVFKVKDTTTLQQHLVDGRDMIIIRMPKDFPPFPQKLKFREPQREERICLVTTNFQTKSMSSMVSDTSCTFPSGDGIFWKHWIQTKDGQCGSPLVSTRDGFIVGIHSASNFTNTNNYFTSVPKNFMELLTNQEAQQWVSGWRLNADSVLWGGHKVFMVKPEEPFQPVKEATQL

Variants of: B1
Test: raw area under fraction-flipped curve 0-4 h after induction (AUC4h, not background-subtracted), DNA-recorder readout of cleavage of the substrate (dimensionless); higher = more cleavage of the substrate by the protease variant
Conditions: temperature: 34 °C; time window: 0-4 h after rhamnose induction
Description: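 In vivo DNA recorder in E. coli TOP10(DE3) ΔrhaA at 34 °C. Each TEVp single-site mutant (parent TEVp 0) is paired with a single-site variant of the 7-mer TEVs (canonical ENLYFQ|S). The substrate sits between flexible linkers in a Bxb1-sfGFP-TEVs-SsrA fusion, so cleavage stabilises Bxb1 and speeds flipping of a recombination array, read by NGS. The value is the raw area under the fraction-flipped curve over 0-4 h after rhamnose induction (AUC4h), with ≥20 reads per time point. It is not background-subtracted; inactive controls average about 0.047.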
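Also: Bxb1 expression induced with 0.2% (w/v) L-rhamnose at OD600 near 0.5, cultures sampled hourly, flipped fraction per protease–substrate barcode pair counted by paired-end Illumina sequencing.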

| Variant | area with substrate ENLYAQS | area with substrate ENLYCQS | area with substrate ENLYEQS | area with substrate ENLYGQS | area with substrate ENLYKQS | area with substrate ENLYLQS | area with substrate ENLYMQS | area with substrate ENLYNQS | area with substrate ENLYPQS | area with substrate ENLYQQS | area with substrate ENLYRQS | area with substrate ENLYSQS | area with substrate ENLYTQS | area with substrate ENLYWQS | area with substrate ENLYYQS | area with substrate ENLYDQS | area with substrate ENLYHQS | area with substrate ENLYIQS | area with substrate ENLYVQS |
| --- | --- | --- | --- | --- | --- | --- | --- | --- | --- | --- | --- | --- | --- | --- | --- | --- | --- | --- | --- |
| I19W | 0.0508 | 0.0545 | 0.0518 | 0.0488 | 0.0445 | 0.0488 | 0.0561 | 0.0529 | 0.0591 | 0.0495 | 0.0461 | 0.0473 | 0.0456 | 0.0539 | 0.0496 |  |  |  |  |
| C20L | 0.0769 |  | 0.0737 |  | 0.0636 | 0.0647 | 0.0773 | 0.0623 | 0.0586 | 0.0608 | 0.0624 | 0.0649 | 0.0596 | 0.0974 | 0.0672 | 0.0579 | 0.0674 | 0.111 | 0.0791 |
| C20W | 0.0458 |  | 0.042 | 0.0251 | 0.0311 |  | 0.0397 | 0.0365 |  | 0.0428 |  | 0.0441 | 0.0336 | 0.0172 | 0.0435 | 0.0499 | 0.0377 | 0.0459 | 0.0543 |
| L22D | 0.07 |  | 0.0499 | 0.0585 | 0.0547 | 0.0508 | 0.0357 | 0.035 | 0.0377 | 0.0541 | 0.0562 | 0.0471 | 0.0489 | 0.0483 | 0.071 | 0.0529 | 0.0409 | 0.0477 | 0.0478 |
| L22H | 0.0464 | 0.038 | 0.0454 | 0.0453 | 0.0438 |  | 0.0456 | 0.0454 | 0.0465 | 0.0512 | 0.0515 |  | 0.0632 | 0.0363 | 0.0485 | 0.0443 | 0.0595 | 0.0454 | 0.0361 |
| L22S | 0.0505 |  | 0.0528 | 0.0416 | 0.0564 | 0.0417 | 0.0397 | 0.049 | 0.0567 | 0.0743 | 0.029 | 0.0562 | 0.044 | 0.0466 | 0.0492 | 0.0386 | 0.0493 | 0.0442 | 0.0353 |
| L22Y | 0.0545 | 0.0623 | 0.0387 | 0.0512 | 0.0822 |  | 0.0453 | 0.0473 | 0.0542 |  | 0.0494 | 0.0479 | 0.0555 | 0.0537 | 0.0442 | 0.0497 | 0.0479 |  | 0.0585 |
| T23A | 0.0762 | 0.0817 | 0.0522 | 0.0377 | 0.0627 | 0.101 | 0.099 | 0.0674 | 0.0633 | 0.0606 | 0.0601 | 0.0695 |  |  | 0.0835 | 0.0538 | 0.0698 | 0.125 | 0.0656 |
| T23K | 0.0855 |  | 0.0624 | 0.0611 | 0.0706 | 0.0723 | 0.0858 | 0.0765 | 0.0606 | 0.0677 | 0.06 |  |  | 0.0549 |  | 0.0609 | 0.0647 | 0.0977 | 0.0949 |
| H29P | 0.081 | 0.0648 | 0.0651 | 0.0639 | 0.0668 | 0.0772 | 0.0625 | 0.0473 |  | 0.0556 | 0.0655 | 0.0662 | 0.054 |  | 0.0691 | 0.07 | 0.0661 | 0.0852 | 0.0825 |
| L33R | 0.0439 | 0.0652 | 0.0689 |  |  | 0.0522 | 0.0506 | 0.058 | 0.0575 | 0.063 | 0.0653 | 0.0589 |  | 0.0592 | 0.0548 | 0.0532 | 0.0575 |  | 0.053 |
| L33Y | 0.0585 | 0.0642 | 0.0678 | 0.0483 | 0.0522 | 0.0667 | 0.059 | 0.0613 | 0.0499 | 0.0607 | 0.0943 | 0.0526 |  | 0.0541 | 0.0575 | 0.0653 | 0.0651 | 0.06 | 0.0599 |
| G37A | 0.0816 |  | 0.0629 | 0.0625 | 0.0701 | 0.0776 |  | 0.0537 | 0.0903 | 0.0685 | 0.0598 |  |  | 0.0651 | 0.0634 | 0.0681 | 0.0668 | 0.132 | 0.118 |
| G37F | 0.0232 | 0.0674 | 0.0404 | 0.0503 | 0.0153 | 0.0775 | 0.0654 | 0.0554 | 0.0573 | 0.0663 | 0.0518 |  |  | 0.0672 | 0.059 | 0.0538 | 0.0564 |  | 0.0736 |
| G37S | 0.0492 |  | 0.0594 | 0.0587 |  | 0.0736 | 0.0606 | 0.0603 |  | 0.0559 |  |  |  | 0.0502 |  | 0.06 | 0.0635 | 0.0815 | 0.0756 |
| G39F | 0.0418 |  | 0.0438 | 0.0476 | 0.0476 | 0.0413 | 0.0077 | 0.0455 |  | 0.0515 | 0.0442 | 0.0436 |  | 0.0446 | 0.0224 |  | 0.0471 | 0.0432 | 0.0638 |
| G39L | 0.0497 |  | 0.0589 | 0.0411 | 0.0385 | 0.0346 | 0.0506 | 0.0382 | 0.0415 |  | 0.0469 | 0.0424 | 0.0375 | 0.0284 |  |  | 0.0449 | 0.0437 |  |
| F41A | 0.0696 |  | 0.0618 | 0.0633 | 0.0471 | 0.068 | 0.07 | 0.0704 |  | 0.0157 |  | 0.0641 | 0.0664 | 0.0727 | 0.0394 |  | 0.0601 | 0.112 |  |
| F41P | 0.0607 | 0.0357 | 0.0478 | 0.0517 | 0.0409 | 0.0472 | 0.0557 | 0.0484 | 0.0431 |  | 0.0338 | 0.0485 |  | 0.0455 | 0.0489 | 0.0546 | 0.0543 | 0.0492 | 0.0551 |
| F41Q | 0.0533 | 0.0584 | 0.0609 | 0.0561 | 0.0462 | 0.0683 | 0.0663 |  | 0.0644 | 0.0514 | 0.0644 | 0.0689 | 0.0563 | 0.0655 | 0.0538 | 0.0452 | 0.0581 | 0.0974 | 0.0979 |
| I42V | 0.0647 | 0.0876 |  | 0.0703 | 0.0449 |  | 0.0688 | 0.0712 | 0.0677 |  | 0.0575 | 0.0576 | 0.0762 | 0.0914 |  | 0.0536 | 0.0752 |  | 0.107 |
| I43D | 0.0451 | 0.0427 | 0.0401 | 0.0332 | 0.045 |  | 0.0497 | 0.044 | 0.0423 | 0.0425 | 0.0392 | 0.0039 |  | 0.0366 |  |  | 0.05 | 0.0505 | 0.0463 |
